Experiment: solvent given as SMILES
Conditions: in CC(=O)N(C)C

absorption maximum: 702 nm
SMILES: CC(C)(C)c1cc(/C2=C3\C=CC(=N3)/C(c3ccc(Br)cc3)=c3/cc/c([nH]3)=C(\c3ccc(Br)cc3)C3=N/C(=C(/c4cc(C(C)(C)C)cc(C(C)(C)C)c4)c4cc2c[nH]4)C=C3)cc(C(C)(C)C)c1

Source: the Deep4Chem optical property database
